Screen size: about 310,000 compounds; about 14,000 (4.5%) showed an effect of 50% or more. Effects have a minus sign here. The list shows a part of the results.
biological target: human ether-à-go-go-related gene (hERG) potassium channel (human, UniProt Q12809); test: primary screen, population patch clamp on CHO cells stably expressing hERG
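Note: peak tail current of the secondary pulse compared with the same well before compound.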

human ether-à-go-go-related gene (hERG) potassium channel, sequence (Q12809 whole entry, looked up): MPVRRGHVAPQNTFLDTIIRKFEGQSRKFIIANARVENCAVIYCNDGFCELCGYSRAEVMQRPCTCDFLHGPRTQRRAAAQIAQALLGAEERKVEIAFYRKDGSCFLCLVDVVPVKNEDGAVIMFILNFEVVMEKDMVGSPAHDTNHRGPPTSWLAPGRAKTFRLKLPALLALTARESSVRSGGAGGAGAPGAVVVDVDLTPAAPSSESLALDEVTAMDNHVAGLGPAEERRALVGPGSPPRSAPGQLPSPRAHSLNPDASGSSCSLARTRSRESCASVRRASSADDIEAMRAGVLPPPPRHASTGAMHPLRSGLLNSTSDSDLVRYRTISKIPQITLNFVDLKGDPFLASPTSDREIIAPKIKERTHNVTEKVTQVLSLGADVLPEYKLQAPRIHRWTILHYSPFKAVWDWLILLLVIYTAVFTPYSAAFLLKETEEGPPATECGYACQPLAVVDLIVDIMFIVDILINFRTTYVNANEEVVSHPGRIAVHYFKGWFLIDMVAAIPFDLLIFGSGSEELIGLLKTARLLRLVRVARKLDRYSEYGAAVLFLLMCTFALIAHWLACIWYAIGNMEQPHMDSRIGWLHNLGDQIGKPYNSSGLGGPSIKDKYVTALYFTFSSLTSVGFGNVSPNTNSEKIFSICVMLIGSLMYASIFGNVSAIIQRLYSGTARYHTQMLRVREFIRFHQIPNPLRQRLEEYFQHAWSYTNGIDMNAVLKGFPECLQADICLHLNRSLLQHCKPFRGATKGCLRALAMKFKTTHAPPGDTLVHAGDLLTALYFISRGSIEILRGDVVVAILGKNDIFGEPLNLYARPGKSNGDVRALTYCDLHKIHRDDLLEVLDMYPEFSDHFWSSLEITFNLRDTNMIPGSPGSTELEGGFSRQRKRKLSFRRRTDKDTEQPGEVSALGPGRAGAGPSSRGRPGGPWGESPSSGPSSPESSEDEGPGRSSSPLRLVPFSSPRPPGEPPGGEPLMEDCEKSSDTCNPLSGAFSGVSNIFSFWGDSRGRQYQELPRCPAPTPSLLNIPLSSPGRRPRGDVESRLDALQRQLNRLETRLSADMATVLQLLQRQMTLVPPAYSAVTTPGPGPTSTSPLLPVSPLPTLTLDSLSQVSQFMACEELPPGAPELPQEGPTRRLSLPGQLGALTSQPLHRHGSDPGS

SMILES | hERG current change (%, negative = inhibition) at 10uM [%]
CN1CCN(S(=O)(=O)c2ccc(Oc3ccc(F)c(Cl)c3)nc2)CC1 | 5.14
Cc1cccc(S(=O)(=O)Nc2nc3ccccc3nc2OC(C)C)c1 | 20.6
COc1cccc(CC(=O)Nc2cc(C(F)(F)F)ccc2N2CCCC2)c1 | 5.15
CC(NC(=O)CSCc1ccc(Br)cc1)c1ccccc1 (stereo not drawn) | -9.55
Cc1cccc(-n2ncc3c(NCc4cccnc4)ncnc32)c1 | -41.1
O=C(COC(=O)c1ccc(O)cc1O)Nc1ccc(Cl)cn1 | 3.23
Cc1ccc(-c2nnc(SCC(=O)NC(=O)Nc3ccc(C)cc3C)n2N)cc1 | 3.49
COc1ccc2c(=O)c(-c3ccccc3C)c(C)oc2c1 | -15.8
CC(NC(=O)COC(=O)C1CCN(S(=O)(=O)c2ccccc2C(F)(F)F)CC1)c1ccccc1 (stereo not drawn) | -5.68
CCN(CC)CCCNC(=O)Cc1c(C(=O)O)n(C)c2ccccc12 | 14.6
CC1(C)C(c2ccccc2)=[N+]([O-])CN1O | -5.85
COc1ccc(S(=O)(=O)Nc2c(C)nc3nc(C)[nH]n3c2=O)cc1 | 30.4
COc1cccc(C(c2sc3nc(C)nn3c2O)N2CCC3(CC2)OCCO3)c1 (stereo not drawn) | 1.93
O=C(O)CSCC(=O)NCc1cccc(C(F)(F)F)c1 | -4.98
CS(=O)(=O)Nc1ccccc1C(=O)Nc1cc(Cl)cc(Cl)c1 | -0.347
O=C(NN1CCOCC1)c1cccc(COc2cccc(Br)c2)c1 | -0.949
O=C(CSc1n[nH]c(=O)[nH]c1=O)N1CCCCCC1 | -3.56
O=C(NN=C1C2CC3CC(C2)CC1C3)c1ccccc1O | 2.43
Cl.c1ccc(CN2CCN(c3nc(N4CCOCC4)c4ccccc4n3)CC2)cc1 | -70.3
CCOC(=O)C1CCCN(C(=O)c2ccc(C(=O)c3ccccc3)cc2)C1 (stereo not drawn) | -49.9
Cc1ccc(NC(=O)CN(C)CC(=O)Nc2ccccc2C(=O)Nc2ccccc2)cc1 | -33.1
CC(C)(C)c1ccc(-c2nnc(N)o2)cc1 | 7.37

SMILES | hERG current change (%, negative = inhibition) at 10uM [%]
Cc1cc(N2CCCC2)nc2c(C)cccc12 | -21.6
O=C(O)CCN1C(=O)c2ccc(Oc3ccc4c(c3)C(=O)N(CCC(=O)O)C4=O)cc2C1=O | 6.2
Cc1cc(=O)oc2c3c(cc(OCC(=O)N[C@@H](CC(C)C)C(=O)O)c12)OC(C)(C)CC3 | 2.76
N#Cc1c(N)oc(-c2ccco2)c1-c1ccco1 | 1.98
CCCc1nn(C(=O)c2ccccc2)c2c1C(=O)CC(C)(C)C2 | 11.5
O=C(CC1NC2CCCCC2NC1=O)Nc1ccc2c(c1)OCO2 (stereo not drawn) | 15.6
COc1cc(C2OC(c3cc(OC)c(OC)c(OC)c3)C(C)C2C)cc(OC)c1OC (stereo not drawn) | 0.51
COc1ccc(NC(=O)c2ccc(S(=O)(=O)N3CCOCC3)cc2)c(OC)c1 | -4.96
COc1ccc(C(=O)Nc2ccccc2N2CCCC2)cc1S(=O)(=O)N1CCOCC1 | -27.2
CCn1ncc(/C=N/N=C2\CCC3C4CCc5cc(O)ccc5C4CCC23C)c1C (stereo not drawn) | 2.51
COc1ccc(CC(=O)OCC(=O)NCc2ccco2)cc1 | 10.6
Cn1c(SCC(N)=O)nnc1-c1ccc(C(C)(C)C)cc1 | 19.8
Cc1cc(SCc2cc(=O)n3ccsc3n2)nc2ccccc12 | -12.1
O=C(NCc1ccc(Cl)cc1)C1CCN(S(=O)(=O)c2cc([N+](=O)[O-])ccc2Cl)CC1 | -59
Cc1ccc(Cn2c(SC3CCOC3=O)nc3ccccc3c2=O)cc1 (stereo not drawn) | -42.9
O=C(Nc1ccc(O)cc1)/C(=C\c1ccncc1)NC(=O)c1ccccc1 | 15.4
CCN(CC)S(=O)(=O)c1cccc(NC(=O)C(=O)c2c(-c3ccccc3)cc3ccccn23)c1 | 4.58
CCOCCCNC(=O)c1cc(-c2cccnc2)nc2ccc(S(=O)(=O)N3CCC(C)CC3)cc12 | 12.9
O=C(CN1CCN(c2ccc(F)cc2)CC1)Nc1ccccc1[N+](=O)[O-] | -22.7
Cc1ccccc1C(=O)OC1OC(=O)C(Cl)=C1Nc1ccc(C(=O)O)cc1 (stereo not drawn) | 24.4
COc1ccc(N2CCN(C(=O)c3nc4nc(C)cc(C)n4n3)CC2)cc1 | 9.69
C=CCNS(=O)(=O)c1cccc2cc(C(=O)O)c(O)cc12 | 13.9

SMILES | hERG current change (%, negative = inhibition) at 10uM [%]
Cc1ccccc1C(=O)N/C(=C/c1ccc(-c2cccnc2Cl)o1)C(=O)NCCCN1CCN(C)CC1 | 8.09
CC(O)c1cc2c(cc1NC(=O)c1cnn3c1NC(c1ccco1)CC3C(F)(F)F)OCO2 (stereo not drawn) | 15.3
O=C(NC1CCS(=O)(=O)C1)N1CCCCC1 (stereo not drawn) | 13.2
Cc1c(Cl)cccc1NC(=S)N1CCCN(Cc2ccc(F)cc2)C1 | -16.3
O=C(O)Cc1ccc(NC(=S)Nc2cccc(Cl)c2Cl)cc1 | 7.8
CC(C)Cn1c(SCC(=O)Nc2cccc(S(N)(=O)=O)c2)nc2ccccc2c1=O | 5.27
CCOC(=O)c1sc(Nc2ccc(OCC)cc2)nc1C | 6.39
COc1ccc(NS(=O)(=O)c2cccc(C(=O)N3CCCCCCC3)c2)cc1 | -28.9
Cc1nc(-c2cccs2)sc1C(=O)O | 8.58
CCN(C(=O)c1ccc(S(=O)(=O)N2CCCCC2)cc1)C1CCS(=O)(=O)C1 (stereo not drawn) | -16.1
CC(C)CCN1C(=O)c2ccc(C(=O)Nc3cc(C(=O)O)cc(C(=O)O)c3)cc2C1=O | -3.73
CCCCC(=O)Nc1cccc(-c2csc(-c3ccccc3)n2)c1 | 3.1
COc1ccc(C)cc1N(C(=O)c1ccc(C#N)cc1)C1=NC(C)(C)CS1 | 6.7
CS(=O)(=O)N(CCc1ccccc1)CC(=O)NCc1ccccc1 | 2.39
COc1ccccc1C(=O)O/N=C1/CCCc2c1ccc(OC)c2[N+](=O)[O-] | 1.18
COc1cc(NC(=O)c2ccccc2[N+](=O)[O-])c(C(=O)O)cc1OC | 20.1
O=S(=O)(c1ccccc1)N1CCC(=NO)CC1 | 11.1
O=C(O)c1sccc1S(=O)(=O)c1ccccc1 | -0.213
CCc1ccc(-c2nc(SCC(=O)N(CC)C3CCS(=O)(=O)C3)n[nH]2)cc1 (stereo not drawn) | -8.29
CC(=O)OCC(=O)Nc1ccccc1OC(F)F | 14.4
COc1cc(OC)cc(C(=O)OCC(=O)NCc2ccco2)c1 | 2.94
CCc1nnc(NC(=O)CSc2nnc(-c3ccco3)n2CC)s1 | 13.7

SMILES | hERG current change (%, negative = inhibition) at 10uM [%]
CCOc1ccc(/C=C(\C#N)C(=O)Nc2ccccn2)cc1 | 6.14
Cc1nn(-c2cccc(C(F)(F)F)c2)c(Cl)c1/C=N/Nc1cccc(C(=O)O)c1 | 15.5
O=C(O)/C=C/C(=O)NCCC(c1ccccc1)c1ccccc1 | 17.1
N#C/C(=C\c1cccs1)C(=O)c1ccccc1 | 4.27
CC(C)(C)OC(=O)[C@H](CCCC[NH3+])NC(=O)c1nc[nH]c1C(=O)NCCCCC[NH3+].[Cl-] | 2.58
COc1ccc(OC)c(-c2csc(NC(=O)c3ccccc3F)n2)c1 | 12.6
O=C(CCl)Nc1cc2[nH]c(=O)[nH]c2cc1Br | 11.6
NS(=O)(=O)c1ccc(CCNc2nc(CN3CCOCC3)nc3sc4c(c23)CCC4)cc1 | -31.2
COc1cc(/C(C)=N/NC(=O)c2ccc(CSc3nncn3C)cc2)cc(OC)c1OC | 5.15
CC(C)c1ccc(-c2csc3nc[nH]c(=O)c23)cc1 | 10.8
COc1ccc(N(CC(=O)Nc2ccc3c(c2)OCO3)S(=O)(=O)c2ccccc2)cc1 | 5.21
O=C(CCc1nnc(Cc2ccc3c(c2)OCO3)o1)NCCc1ccccc1Cl | -6.86
COc1ccc(Oc2nc(-c3cccnc3)nc3ccccc23)cc1 | 2.76
CCCCc1nnc(NC(=O)C2CCN(c3ncnc4sc(C)c(C)c34)CC2)s1 | 16.6
O=C(c1cc2cc(Br)ccc2o1)N1CCN(c2ccccc2)CC1 | 13.7
O=C(NCCCn1ccnc1)C(=O)NCC1OCCN1S(=O)(=O)c1ccc(Br)cc1 (stereo not drawn) | -6.31
O=C(O)C1CCN(c2ccccc2[N+](=O)[O-])CC1 | 3.84
COc1ccc2c(c1)CCc1c(C(=O)NCCc3ccc(OC)c(OC)c3)noc1-2 | 4.59
CSc1ccc(S(=O)(=O)NCCCn2ccnc2)cc1 | -16.6
COc1ccc(C(=O)NC(C)Cc2cnccn2)cc1OC1CCN(C(C)C)CC1 (stereo not drawn) | 18.4
O=c1cc(/N=C/c2coc3c(ccc4ccccc43)c2=O)[nH]c(=S)[nH]1 | 11

Source: PMC4336329 (PLoS ONE, 2015)
